Measured values as given in patent EP4628512A1 (Innovent Biologics (Suzhou) Co., Ltd., dated 2025).

Experiments:
[1] = molecular target: T1, human Ang2 (Beijing Sino Biological) (human, UniProt O15123 19-496, limits assumed); assay: SPR (Biacore T200), CM5 chip, bivalent binding, 1:1 binding model
T1 construct: Antigen of the BLI and SPR experiments; also called angiopoietin 2; ANGPT2
T1 sequence (looked up): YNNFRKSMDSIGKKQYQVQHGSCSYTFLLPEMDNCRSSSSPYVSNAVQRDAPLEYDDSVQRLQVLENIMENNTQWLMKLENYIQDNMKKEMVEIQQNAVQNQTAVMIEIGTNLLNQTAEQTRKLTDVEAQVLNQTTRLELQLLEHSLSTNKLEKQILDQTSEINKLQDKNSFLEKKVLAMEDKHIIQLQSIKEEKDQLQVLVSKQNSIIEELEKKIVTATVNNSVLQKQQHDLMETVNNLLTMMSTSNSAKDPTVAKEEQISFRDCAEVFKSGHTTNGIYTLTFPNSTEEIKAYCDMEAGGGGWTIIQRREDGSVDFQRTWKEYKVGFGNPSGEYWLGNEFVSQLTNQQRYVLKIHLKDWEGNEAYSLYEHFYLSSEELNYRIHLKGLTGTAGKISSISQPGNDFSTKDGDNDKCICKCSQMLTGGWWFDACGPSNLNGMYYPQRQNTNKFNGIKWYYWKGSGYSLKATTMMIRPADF

human VEGF165 (R&D) = molecular target: T2, human VEGF165 (R&D) (human, UniProt P15692-4 27-191); assay: SPR (Biacore T200), CM5 chip, 1:1 binding model
T2 construct: also called VEGFA; human VEGFA
T2 sequence (looked up): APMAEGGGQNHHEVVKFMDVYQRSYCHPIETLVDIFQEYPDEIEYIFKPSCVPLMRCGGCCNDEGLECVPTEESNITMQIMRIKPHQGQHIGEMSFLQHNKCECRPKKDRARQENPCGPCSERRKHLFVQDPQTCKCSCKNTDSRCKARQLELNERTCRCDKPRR

human VEGFC (R&D) = molecular target: T3, human VEGFC (R&D) (human, UniProt P49767 103-227); assay: SPR (Biacore T200), CM5 chip, bivalent binding, 1:1 binding model
T3 construct: also called hVEGFC; recombinant human VEGFC protein
T3 sequence (looked up): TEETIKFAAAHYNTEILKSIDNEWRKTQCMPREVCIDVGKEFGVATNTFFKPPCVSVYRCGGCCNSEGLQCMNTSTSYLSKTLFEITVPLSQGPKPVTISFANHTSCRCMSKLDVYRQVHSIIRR

B1: IAR044-019 (Fc fusion)
chain: EVQLLESGGGLVQPGGSLRLSCAASGFALDYYAIGWFRQAPGKGLEGVSCISSGEGSTYYADSVKGRFTISRDNSKNTVYLQMNSLRAEDTAVYYCATDSRGDDVACEGLRRNEYDYWGQGTLVTVSSGRPGSGRPGSSDTGRPFVEMYSEIPEIIHMTEGRELVIPCRVTSPNITVTLKKFPLDTLIPDGKRIIWDSRKGFIISNATYKEIGLLTCEATVNGHLYKTNYLTHRQTNTIIDVVLSPSHGIELSVGEKLVLNCTARTELNVGIDFNWEYPSSKHQHKKLVNRDLKTQSGSEMKKFLSTLTIDGVTRSDQGLYTCAASSGLMTKKNSTFVRVHEK[gap - human IgG1 Fc]RPGSGRPGSEVQLVESGGGLVQPGGSLRLSCAASGSSFSPYAMGWYRQAPGKQRELVSATSEGGFTLYADSVKGRFTISRDNSKNTVYLQMNSLRAEDTAVYYCYMHWRGSDPENYWGQGTQVTVSS
notes: Single polypeptide: anti-Ang2 VHH, linker, VEGFA mini-Trap (VEGFR1 domain 2 + VEGFR2 domain 3), Fc, linker, anti-VEGFC VHH; also called anti-VEGFA/VEGFC/Ang2 multi-specific fusion protein
- Kd [1]: 0.0556 nM
- koff [1]: 3.3e-05 s⁻¹
- kon [1]: 594000 M⁻¹ s⁻¹
- koff (human VEGF165 (R&D)): 4.94e-05 s⁻¹
- kon (human VEGF165 (R&D)): 5.34e+07 M⁻¹ s⁻¹
- Kd (human VEGFC (R&D)): < 0.0178 nM
- koff (human VEGFC (R&D)): < 1e-05 s⁻¹
- kon (human VEGFC (R&D)): 562000 M⁻¹ s⁻¹
